Data on 20 molecules can be found in publication PMC11472340 (Journal of Medicinal Chemistry, 2024).

As usually defined, the solubility is the concentration that dissolves in the medium under given conditions. Higher therefore signals a readily soluble substance. For orientation: ΔTm means the change in melting temperature against a reference sample.

Molecules are shown by their SMILES. ≈ marks a conversion by molar mass, not a printed value.

Data set [1] deals with T1, GCDH WT (Homo sapiens, UniProt Q92947).
The target in data set [2] is T1, GCDH WT. The data set is described as follows: biochemical. The settings on record: read-out: relative enzymatic activity (% DMSO).
The target of data set [3] is T2, GCDH wild type (WT) (Homo sapiens, UniProt Q92947).
A further data set concerns the target GCDH (Homo sapiens, UniProt Q92947).
For data set [4], the target named is T1, GCDH WT. This is another data set of the same source.
Data set [5] deals with tested GCDH proteins (without MBP-tag).
Data set [6] deals with T2, GCDH wild type (WT). The data set is described as follows: biochemical. Conditions: read-out: ΔTm GCDH WT.

For the molecule `O=C(Nc1cccnc1)Nc1ccc(Cl)c(Cl)c1` [Compound A19], the “ITC (Kd)” value on GCDH WT [1] is listed as “insoluble”. For the same molecule, at GCDH WT [2], the remaining activity at 10 µM turned out to be 122 ± 20%. Also, the “stability effect (ΔTm score) WT” value at GCDH wild type (WT) [3] is 2 (key: scores of 1 given for ΔTm > 1 °C; 2 for ΔTm > 2 °C; 4 for ΔTm > 3 °C).

In the case of `O=C(NCCN1CCCCCC1=O)Nc1cccnc1` [Compound A24], the General evaluation entry at GCDH was “non-stabilizer”.

As to `CC(CO)NC(=O)Nc1ccc(I)cc1` (stereo not drawn) [Compound A25], the remaining activity at 10 µM at GCDH WT [2] was determined as 117 ± 7%. The General evaluation result at GCDH was “Stabiliser. Activator”. Besides, the “stability effect (ΔTm score) WT” value on GCDH wild type (WT) [3] was 2 (key: scores of 1 given for ΔTm > 1 °C; 2 for ΔTm > 2 °C; 4 for ΔTm > 3 °C).

`O=C(NCCO)Nc1ccc(Cl)c(Cl)c1` [Compound A29]: at GCDH WT [1], the “ITC (Kd)” value was “no binding”. Also, the “increase of GCDH specific activity” value on GCDH WT [4] is given as “over 41.2%”. Moreover, the remaining activity at 10 µM on GCDH WT [2] came out at 141 ± 11%. Moreover, the General evaluation result at GCDH was “Stabiliser. Activator”. Also, the “stability effect (ΔTm score) WT” value at GCDH wild type (WT) [3] was 1 (key: scores of 1 given for ΔTm > 1 °C; 2 for ΔTm > 2 °C; 4 for ΔTm > 3 °C).

Turning to `Cc1ccc(CSC2=NS(=O)(=O)c3ccccc3N2)cc1` [Compound A34], the remaining activity at 10 µM on GCDH WT [2] stood at 127 ± 4%. In addition, the “stability effect (ΔTm score) WT” value on GCDH wild type (WT) [3] was 4 (key: scores of 1 given for ΔTm > 1 °C; 2 for ΔTm > 2 °C; 4 for ΔTm > 3 °C).

As for `O=S1(=O)N=C(SCc2cccnc2)Nc2ccc(Cl)cc21` [Compound A35], at GCDH WT [1], the “ITC (Kd)” value is listed as “no binding”. Moreover, the remaining activity at 10 µM at GCDH WT [2] came to 104 ± 25%. The “stability effect (ΔTm score) WT” value at GCDH wild type (WT) [3] is 4 (key: scores of 1 given for ΔTm > 1 °C; 2 for ΔTm > 2 °C; 4 for ΔTm > 3 °C).

Take `N#CCC(=O)Nc1nnc(SCc2cccc3ccccc23)s1` [Compound A49]: the solubility in “physchem” (pH 7, Solubility) was 0.51 µM (≈ 0.174 µg/mL); in the data set “physchem” (pH 7.2, Solubility) it was 0.52 µM (≈ 0.177 µg/mL).

Take `COc1ccc2oc(=O)c(-c3ccc(OCC(=O)NCCc4cnc[nH]4)cc3)cc2c1` [Compound A52]: on GCDH WT [2], the remaining activity at 10 µM came out at 124 ± 3%.

Regarding `O=C(Nc1ccc(NC(=O)c2cccc(Cl)c2)cc1)c1cccnc1` [Compound A55], the “ITC (Kd)” value on GCDH WT [1] is “insoluble”. At GCDH WT [2], the remaining activity at 10 µM came to 127 ± 7%. Moreover, on GCDH, the General evaluation entry is listed as “Stabiliser”. For the same molecule, the solubility in the data set “physchem” (pH 7, Solubility) was found to be 2.42 µM (≈ 0.851 µg/mL); in “physchem” (pH 7.2, Solubility), 4.03 µM (≈ 1.42 µg/mL). For the same molecule, the “stability effect (ΔTm score) WT” value at GCDH wild type (WT) [3] was 1 (key: scores of 1 given for ΔTm > 1 °C; 2 for ΔTm > 2 °C; 4 for ΔTm > 3 °C). Besides, the “effect on thermal stability, all tested GCDH proteins” value in data set [5] is “did not show significant thermal stability changes”.

Consider `O=C(NCCOc1cccc(Cl)c1Cl)c1ccccc1O` [Compound A57], for which the “ITC (Kd)” value on GCDH WT [1] is given as “insoluble”. Further, the remaining activity at 10 µM on GCDH WT [2] is 132 ± 10%.

Consider `O=C(CSc1nccc(=O)[nH]1)Nc1cccc(I)c1` [Compound A71], for which the solubility in “physchem” (pH 7, Solubility) came out at 70.4 µM (≈ 27.2 µg/mL); in “physchem” (pH 7, Solubility, assay buffer 1), 70.4 µM (≈ 27.3 µg/mL).

For `CCOc1ccc(Nc2nc(Cc3nnc(SCc4ccc(C)cc4)o3)cs2)cc1` [Compound A77], at GCDH wild type (WT) [6], the shift in melting temperature (ΔTm) at 10 µM is -0.08 °C, the ΔTm at 30 µM was -0.02 °C and the ΔTm at 100 µM is -0.37 °C.

Regarding `O=C1CSC(Nc2ccc3ccccc3c2)=N1` [Compound A78], at GCDH wild type (WT) [6], the ΔTm at 10 µM was -0.21 °C and the thermal shift (ΔTm) at 30 µM was -0.51 °C.

In the case of `O=C(CN1C(=O)c2ccccc2S1(=O)=O)Nc1ccc(OCc2ccccc2)cc1` [Compound A79], at GCDH wild type (WT) [6], the shift in melting temperature (ΔTm) at 10 µM is 0.82 °C, the shift in melting temperature (ΔTm) at 30 µM was -3.99 °C and the shift in melting temperature (ΔTm) at 100 µM was -4.13 °C.

For the molecule `Cc1nc2ccc(NC(=O)NCCO)cc2s1` [Compound A80], at GCDH wild type (WT) [6], the ΔTm at 10 µM was -0.2 °C, the shift in melting temperature (ΔTm) at 30 µM is -0.09 °C and the thermal shift (ΔTm) at 100 µM was -0.43 °C.

In the case of `O=C(CCCc1nc(-c2ccccc2)no1)NC1CCCC1` [Compound A81], on GCDH wild type (WT) [6], the ΔTm at 10 µM was -0.32 °C, the ΔTm at 30 µM came out at 0.01 °C and the ΔTm at 100 µM is -0.13 °C.

`O=C(CN1C(=O)c2ccccc2S1(=O)=O)NCCSCc1ccccc1Cl` [Compound A82]: on GCDH wild type (WT) [6], the ΔTm at 10 µM is -0.6 °C, the thermal shift (ΔTm) at 30 µM is -0.17 °C and the ΔTm at 100 µM was -0.14 °C.

Regarding `Cc1nonc1CNC(=O)CCc1nc2ccc(Cl)cc2[nH]1` [Compound A83], at GCDH wild type (WT) [6], the ΔTm at 10 µM is -0.58 °C and the ΔTm at 100 µM is -0.16 °C.

Regarding `O=C(CSc1nccc(O)n1)Nc1cccc(F)c1` [Compound A84], at GCDH wild type (WT) [6], the thermal shift (ΔTm) at 10 µM is -0.09 °C.

`Cc1nc(CNS(=O)(=O)Cc2ccc(Cl)c(Cl)c2)no1` [Compound A85]: on GCDH wild type (WT) [6], the ΔTm at 10 µM was -0.06 °C, the thermal shift (ΔTm) at 30 µM worked out at 0.72 °C and the shift in melting temperature (ΔTm) at 100 µM is -0.31 °C.
